The supplement of paper PMC11417369
± gives the standard deviation of the averaged measurements. Some of the results follow.

These sequences were tested on PfAP2-LT AP2 domain (GST-tagged) (assay: gcPBM binding intensity (ln(normalized median fluorescence intensity)); higher = stronger DNA binding).
Procedure, shortened: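 Using an Agilent 4 × 180k array, primer-extended double-stranded 36-bp intergenic genomic probes and negative controls were exposed for 1 h to GST-fused P. falciparum DNA-binding domains expressed in E. coli. Binding was carried out in 1× PBS with 1% milk, 0.2 mg/ml BSA, 0.5% salmon testes DNA and 0.03% Triton X-100, and protein was detected with Alexa488 anti-GST antibody and a 488 nm scan. Binding intensity is the highest Masliner-normalised natural-log median intensity across replicate spots of either probe orientation.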

Row | Sequence | gcPBM binding intensity (ln)
1 | AAATATATATTCATGTGTACACACAAAAAAAAATAA [XGTACX_site4552] | 9.48 ± 0.47
2 | AAAAATTTTCAAGTGTGTACATATTTTCATTTAACA [XGTACX_site6186] | 8.79 ± 0.36
3 | AAGAAAAAGTATCCTCTATCTTTATATAAACTATTA [TGCATGCA_negctrl_site2] | 8.51 ± 0.53
4 | TTTTTATTTAGCTAAGCATGCTAACGATGACACTTC [TGCATGCA_site79] | 8.73 ± 0.49
5 | TTTATACTTTTAAATTGTACTATAAAAAGGAATACA [XGTACX_site2537] | 8.2 ± 0.4
6 | TAATAAAAAATTAAAAAAAATAAAAATAAAAATAAA [GTGCAC_negctrl_site78] | 8.39 ± 0.6
7 | CATACATATACTTTGTGTACATATATATATTATATA [XGTACX_site97] | 8.74 ± 0.44
8 | ATGTATATATTTTTATGTACATATTTTTAATTTATA [XGTACX_site2982] | 8.62 ± 0.38
9 | GAATATTCAACATAATGTACAAGTATTCATTTCTTT [XGTACX_site7860] | 8.66 ± 0.44
10 | CAAAAATAAAAGAAATGTACAAAAAATAATAAAAAA [XGTACX_site6597] | 8.87 ± 0.58
11 | AAAATTCATAAATACACACACGCACATATATATATA [CACACA_site4227] | 9.855 ± 0.078
12 | TAATAAACTTAAAAATGTACATATATTTATTATTAC [XGTACX_site4321] | 8.56 ± 0.45
13 | AAGAAAATGTATATATGTACATACAATCAAAAGAAG [XGTACX_site3454] | 9.01 ± 0.48
14 | AGTTTAATTTTGTATACACACATTTGAATTATTAAT [CACACA_site7625] | 9.13 ± 0.37
15 | AACAAATATGATTTTTTATATATTTTTAAATTTGGT [GTGCAC_negctrl_site189] | 8.32 ± 0.48
16 | AGCTACAAAAATTAATATATATATGTATAGTTATAC [TGCATGCA_negctrl_site531] | 8.64 ± 0.42
17 | TATATCTATTTCAAATGTACTTATATGATTCTTATA [XGTACX_site6277] | 8.6 ± 0.45
18 | GTTCATATAATAAAATGTACATAATATATTATATAT [XGTACX_site7623] | 8.76 ± 0.36
19 | AAATTACTGTAAAAAAGTACAGAAGTTCTTATTTTT [XGTACX_site7416] | 8.44 ± 0.35
20 | TATATGTAGATTAAACGTACTTACAACGGAATTATC [XGTACX_site3036] | 8.75 ± 0.44
21 | GTATTATATTTTAATACACACCCAAATATTAAAAAG [CACACA_site8968] | 8.73 ± 0.31
22 | TGCCATCATATCATAGGTACACAAACATATAAAGAA [XGTACX_site4137] | 8.91 ± 0.48
23 | AAATGTTCAGAAACTATTATAAAAATGGAATAATAT [CACACA_negctrl_site1544] | 8.59 ± 0.49
24 | TAAATATTATATTTATGTACATAAGTTTTTTTTAAT [XGTACX_site3559] | 8.49 ± 0.48
